# Test results as given in the supplement of paper PMC8728848.
# The other results are listed elsewhere or left out.
# B1: Surfactant Protein D (Human); Neck + Carbohydrate Recognition Domain (NCRD) (Homo sapiens) (protein)
# chain: MLLFLLSALVLLTQPLGYLEAEMKTYSHRTMPSACTLVMCSSVESGLPGRDRDGREGPRGEKGDPGLPGAAGQAGMPGQAGPVGPKGDNGSVGEPGPKGDTGPSGPPGPPGVPGPAGREGALGKQGNIGPQGKPGPKGEAGPKGEVGAPGMQGSAGARGLAGPKGERGVPGERGVPGNTGAAGSAGAMGPQGSPGARGPPGLKGDKGIPGDKGAKGESGLPDVASLRQQVEALQGQVQHLQAAFSQYKKVELFPNGQSVGEKIFKTAQFVKPFTEAQLLCTQAGGQLASPRSAAENAALQQLVVAKNEAAFLSMTDSKTEGKFTYPTGESLVYSNWAPGEPNDDGGSEDCVEIFTNGKWNDRACGEKALVVCEF
# What was measured:
# Assay in all cases: glycan array binding signal (z-score within array); higher = stronger binding
# Conditions in all cases: glycan notation: IUPAC condensed, linker removed; mutation: R349A
# GlcA(b1-3)GlcNAc = biological target: GlcA(b1-3)GlcNAc
# In short: (§1)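 Glycan array data were curated from 3228 arrays in the Consortium for Functional Glycomics database and kept only where the protein sequence was available. Glycan names were converted to IUPAC-condensed notation, and columns mapping to the same glycan were averaged. The binding signal is a within-array Z-score, averaged across arrays of the same protein sequence at different concentrations or buffers and across linkers. Negative Z-scores can be read as non-binding.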
# GlcA(b1-6)Gal = biological target: GlcA(b1-6)Gal
# In short: as §1
# [1] = biological target: GlcNAc(a1-3)Gal(b1-4)GlcNAc
# In short: as §1
# [2] = biological target: GlcNAc(a1-6)Gal(b1-4)GlcNAc
# In short: as §1
# [3] = biological target: GlcNAc(b1-2)Gal(b1-3)GalNAc
# In short: as §1
# [4] = biological target: GlcNAc(b1-2)Man(a1-3)[GlcNAc(b1-2)Man(a1-6)]Man(b1-4)GlcNAc(b1-4)GlcNAc
# In short: as §1
# GlcNAc(b1-3)Gal = biological target: GlcNAc(b1-3)Gal
# In short: as §1
# [5] = biological target: GlcNAc(b1-3)Gal(b1-3)GalNAc
# In short: as §1
# GlcNAc(b1-3)Gal(b1-4)Glc = biological target: GlcNAc(b1-3)Gal(b1-4)Glc
# In short: as §1
# [6] = biological target: GlcNAc(b1-3)Gal(b1-4)GlcNAc
# In short: as §1
# [7] = biological target: GlcNAc(b1-3)Gal(b1-4)GlcNAc(b1-3)Gal(b1-4)GlcNAc
# In short: as §1
# GlcNAc(b1-3)GalNAc = biological target: GlcNAc(b1-3)GalNAc
# In short: as §1
# GlcNAc(b1-3)Man = biological target: GlcNAc(b1-3)Man
# In short: as §1
# [8] = biological target: GlcNAc(b1-3)[GlcNAc(b1-4)][GlcNAc(b1-6)]GlcNAc
# In short: as §1
# [9] = biological target: GlcNAc(b1-3)[GlcNAc(b1-6)]Gal(b1-4)GlcNAc
# In short: as §1
# [10] = biological target: GlcNAc(b1-3)[GlcNAc(b1-6)]GalNAc
# In short: as §1
# [11] = biological target: GlcNAc(b1-4)Gal(b1-4)GlcNAc
# In short: as §1
# GlcNAc(b1-4)GlcNAc = biological target: GlcNAc(b1-4)GlcNAc
# In short: as §1
# [12] = biological target: GlcNAc(b1-4)GlcNAc(b1-4)GlcNAc
# In short: as §1
# [13] = biological target: GlcNAc(b1-4)GlcNAc(b1-4)GlcNAc(b1-4)GlcNAc(b1-4)GlcNAc
# In short: as §1
# [14] = biological target: GlcNAc(b1-4)GlcNAc(b1-4)GlcNAc(b1-4)GlcNAc(b1-4)GlcNAc(b1-4)GlcNAc
# In short: as §1
# [15] = biological target: GlcNAc(b1-4)[GlcNAc(b1-6)]GalNAc
# In short: as §1
# [16] = biological target: GlcNAc(b1-6)Gal(b1-4)GlcNAc
# In short: as §1
# GlcNAc(b1-6)GalNAc = biological target: GlcNAc(b1-6)GalNAc
# In short: as §1
# GlcNAc3Prop(b1-4)GlcNAc = biological target: GlcNAc3Prop(b1-4)GlcNAc
# In short: as §1
# Kdn(a2-3)Gal(b1-3)GlcNAc = biological target: Kdn(a2-3)Gal(b1-3)GlcNAc
# In short: as §1
# Kdn(a2-3)Gal(b1-4)GlcNAc = biological target: Kdn(a2-3)Gal(b1-4)GlcNAc
# In short: as §1
# [17] = biological target: Man(a1-2)Man(a1-2)Man(a1-3)Man
# In short: as §1
# [18] = biological target: Man(a1-2)Man(a1-2)Man(a1-6)[Man(a1-3)]Man
# In short: as §1
# Man(a1-2)Man(a1-3)Man = biological target: Man(a1-2)Man(a1-3)Man
# In short: as §1
# [19] = biological target: Man(a1-2)Man(a1-3)[Man(a1-2)Man(a1-6)]Man
# In short: as §1
# [20] = biological target: Man(a1-2)Man(a1-3)[Man(a1-2)Man(a1-6)]Man(a1-6)[Man(a1-2)Man(a1-2)Man(a1-3)]Man
# In short: as §1
# [21] = biological target: Man(a1-2)Man(a1-3)[Man(a1-2)Man(a1-6)]Man(a1-6)[Man(a1-2)Man(a1-2)Man(a1-3)]Man(b1-4)GlcNAc(b1-4)GlcNAc
# In short: as §1
# [22] = biological target: Man(a1-2)Man(a1-3)[Man(a1-6)]Man(a1-6)[Man(a1-2)Man(a1-3)]Man(b1-4)GlcNAc(b1-4)GlcNAc
# In short: as §1
# [23] = biological target: Man(a1-2)Man(a1-6)[Man(a1-3)]Man(a1-6)[Man(a1-2)Man(a1-2)Man(a1-3)]Man
# In short: as §1
# [24] = biological target: Man(a1-2)Man(a1-6)[Man(a1-3)]Man(a1-6)[Man(a1-2)Man(a1-2)Man(a1-3)]Man(b1-4)GlcNAc(b1-4)GlcNAc
# In short: as §1
# Man(a1-3)[Man(a1-6)]Man = biological target: Man(a1-3)[Man(a1-6)]Man
# In short: as §1
binder,measurement,setting,value
B1,glycan array binding signal (z-score),GlcA(b1-3)GlcNAc,-0.534
same,glycan array binding signal (z-score),GlcA(b1-6)Gal,-0.166
same,glycan array binding signal (z-score),[1],-0.557
same,glycan array binding signal (z-score),[2],-0.518
same,glycan array binding signal (z-score),[3],-0.928
same,glycan array binding signal (z-score),[4],-0.653
same,glycan array binding signal (z-score),GlcNAc(b1-3)Gal,-0.71
same,glycan array binding signal (z-score),[5],-0.31
same,glycan array binding signal (z-score),GlcNAc(b1-3)Gal(b1-4)Glc,-0.831
same,glycan array binding signal (z-score),[6],-0.548
same,glycan array binding signal (z-score),[7],-0.303
same,glycan array binding signal (z-score),GlcNAc(b1-3)GalNAc,-0.265
same,glycan array binding signal (z-score),GlcNAc(b1-3)Man,0.054
same,glycan array binding signal (z-score),[8],-0.767
same,glycan array binding signal (z-score),[9],-0.364
same,glycan array binding signal (z-score),[10],-0.694
same,glycan array binding signal (z-score),[11],-0.439
same,glycan array binding signal (z-score),GlcNAc(b1-4)GlcNAc,-0.562
same,glycan array binding signal (z-score),[12],3.19
same,glycan array binding signal (z-score),[13],0.258
same,glycan array binding signal (z-score),[14],0.473
same,glycan array binding signal (z-score),[15],-0.577
same,glycan array binding signal (z-score),[16],-0.564
same,glycan array binding signal (z-score),GlcNAc(b1-6)GalNAc,-0.812
same,glycan array binding signal (z-score),GlcNAc3Prop(b1-4)GlcNAc,-0.229
same,glycan array binding signal (z-score),Kdn(a2-3)Gal(b1-3)GlcNAc,-0.048
same,glycan array binding signal (z-score),Kdn(a2-3)Gal(b1-4)GlcNAc,-0.324
same,glycan array binding signal (z-score),[17],-0.072
same,glycan array binding signal (z-score),[18],-0.532
same,glycan array binding signal (z-score),Man(a1-2)Man(a1-3)Man,0.578
same,glycan array binding signal (z-score),[19],0.486
same,glycan array binding signal (z-score),[20],4.48
same,glycan array binding signal (z-score),[21],0.02
same,glycan array binding signal (z-score),[22],1.78
same,glycan array binding signal (z-score),[23],0.757
same,glycan array binding signal (z-score),[24],0.81
same,glycan array binding signal (z-score),Man(a1-3)[Man(a1-6)]Man,-0.638
